From ChEMBL document CHEMBL4888484, “Replenishing the malaria drug discovery pipeline: Screening and hit evaluation of the MMV Hit Generation Library 1 (HGL1) against asexual blood stage Plasmodium falciparum ,using a nano luciferase reporter read-out” (2022) come the findings set out here.

Structures are written as SMILES. The campaign covered roughly 150,000 compounds. About 540 (0.36%) showed an effect of 50% or more. This is one part of the list.

This assay has as its system Plasmodium falciparum. Kind of assay: Primary screen in NF54 nanoGlo assay, in single point, at 2uM, 72h; a lower Z score goes with more inhibition. In kind it is functional, Erythrocyte. The following applies: timepoint 72 hour.
With `Cc1cc(C)c2nc(C)c(CN(C)C3CCCCC3)c(O)c2c1`, the “% Inhibition” value was -5% and the Z score is 0.85.
The matching figures for `O=C(c1ccc(-c2ccc3c(c2)OC(F)(F)O3)cc1)N(CCO)CCO`: 2% and -0.47.
The matching figures for `c1ccc(-n2nnnc2N2CCCCCCC2)cc1`: -13% and 1.28.
On the same counts, the results for `COc1ccccc1C1(c2ccccc2OC)c2ccccc2Nc2ccccc21` are 12% and -2.35.
`Cc1nccn1Cc1nnc(C2CCN(c3cc(C#N)ccn3)CC2)n1C`: the “% Inhibition” value is -10% and the Z score is 1.31.
The matching figures for `CC1=NS(=O)(=O)N(C)C=C1C(=O)OCc1ccc(N2CCCC2=O)cc1`: -12% and 1.67.
On the same counts, the results for `C[C@H]1CNC(=O)CCN1S(=O)(=O)c1cccc(C(=O)NCCF)c1` are 8% and -1.1.
On the same counts, the results for `C=CCNC(=O)C1Cc2ccccc2N2CCN(CC(=O)N3CCCC3)CC12` (stereo not drawn) are 3% and -0.35.
Take `CCC(C(=O)Nc1ccc2c(c1)CN(CCc1ccc(OC)c(OC)c1)C(=O)C(C)O2)c1ccccc1` (stereo not drawn): the “% Inhibition” value is given as 91% and the Z score is listed as -17.08.
The matching figures for `Cc1nc(CNC(=O)c2ccc(OC(C)(C)C)cn2)ccc1[C@H](C)O`: -6% and 0.78.
The matching figures for `CN(c1nnc(-c2ccon2)s1)[C@H]1CCCN(Cc2ccccc2)C1`: -33% and 3.88.
The matching figures for `CCn1ccc(C(=O)Nc2c[nH]nn2)n1`: -15% and 2.76.
In the case of `CN(Cc1nc2ccccc2s1)[C@H]1CCOC2(CCOCC2)C1`, the “% Inhibition” value is -11% and the Z score was 2.11.
The matching figures for `Cn1c(CCn2ccnc2-c2cnc(N3CCCC3)s2)n[nH]c1=O`: -20% and 2.59.
The matching figures for `CCCn1ncc(CN2CCN(C)[C@]3(CCC(=O)N(CC4CC4)CC3)C2)c1C`: -2% and 0.41.
As for `CN1CCC(n2cnc(-c3ccccc3)c2-c2cccc(Cl)c2)CC1`, the “% Inhibition” value was -5% and the Z score is given as 0.73.
The matching figures for `Cc1nn2cc(CCCO)cnc2c1C`: -3% and 0.46.
The matching figures for `CCn1nc(C)c(C(=O)Nc2nc(CC3CC3)ns2)n1`: -11% and 1.07.
With `COCCNC(=O)[C@@H]1COC2(CCN(C(=O)c3ccc4c(c3)OCO4)CC2)N1C(=O)c1ccc(C)cc1`, the “% Inhibition” value is listed as -6% and the Z score is given as 1.14.
With `COC[C@H]1COCCN1C(=O)Nc1ccncc1OC(C)C`, the “% Inhibition” value is reported as -17% and the Z score was 2.73.
On the same counts, the results for `O=C(COc1ccccc1)N[C@H]1CCCNC1=O` are 2% and -0.34.
The matching figures for `Cc1ccc(CN2C(=O)N[C@]3(CCN(C(=O)c4ccc(Cl)cc4)C3)C2=O)cc1`: -6% and 0.72.
As to `O=C(Nc1cccc(F)c1)[C@]1(O)CCOC1`, the “% Inhibition” value was -15% and the Z score stood at 1.76.
In the case of `CCc1nc(Cn2cc(C(C)=O)c(=O)n(C)c2=O)cs1`, the “% Inhibition” value worked out at 0% and the Z score is recorded as -0.03.
On the same counts, the results for `CCN(C(=O)CCC(=O)N1CCC(Cc2nncn2CC2CC2)CC1)c1ccccc1` are -5% and 0.63.
On the same counts, the results for `O=C(C1CC=CCC1)N1CCC(Oc2cnsn2)C1` (stereo not drawn) are -7% and 1.16.
On the same counts, the results for `C[C@H](Nc1ccn(CCc2ccncc2)n1)c1ccccn1` are 0% and -0.06.
On to `COc1cccc(C2CN(C(=O)CC(C)(C)C)CC2C(=O)NCc2ccccn2)c1OC` (stereo not drawn), for which the “% Inhibition” value is given as -24% and the Z score is on record as 2.53.
In the case of `CC(C)c1occc1C(=O)N1CCO[C@@H](CF)C1`, the “% Inhibition” value is recorded as -2% and the Z score was 0.25.
On the same counts, the results for `CN1CCc2ncnc(N3CCO[C@H](C(N)=O)C3)c2C1` are -2% and 0.27.
The matching figures for `Cc1ccc(Cn2cccc2C(=O)C(=O)NC2CCCCC2)cc1C`: 1% and -0.08.
On to `OC(COCc1ccccc1)CN(Cc1cccc(F)c1)CC1CC(c2ccccc2)=NO1` (stereo not drawn), for which the “% Inhibition” value is listed as -9% and the Z score is given as 1.2.
On the same counts, the results for `N#Cc1cc(-c2cccc(C(=O)N3C[C@H](CO)[C@@H](CO)C3)c2)ccc1F` are 0% and -0.08.
The matching figures for `CC(C)c1cc(CNCc2cc(Cl)ccc2OC[C@@H](O)CN2CCCCCC2)on1`: -4% and 0.62.
The matching figures for `C[C@@H](C(=O)N(C)Cc1ccsc1)S(C)(=O)=O`: 0% and 0.
In the case of `Cc1cc(CNC[C@@H](C)CCO)ccc1Cl`, the “% Inhibition” value is reported as -8% and the Z score is reported as 1.06.
`NC(=O)c1c(-c2ccc(Cl)cc2Cl)csc1NC(=O)c1csc2c1CCCC2`: the “% Inhibition” value was -9% and the Z score was found to be 1.18.
The matching figures for `CC(C)CCc1cc(NC(=O)Cc2c[nH]c3cc(F)ccc23)n(C)n1`: 1% and -0.18.
Take `CC(C)S(=O)(=O)CC(=O)N1CCC12CCCC2`: the “% Inhibition” value is -3% and the Z score came to 0.48.
With `CC(=O)N1CCN(CC(=O)Nc2nc3ccccc3[nH]2)CC1`, the “% Inhibition” value was -6% and the Z score was 1.12.
On the same counts, the results for `Nc1nc2cc(C(=O)N3CCN(C4CCCCC4)CC3)ccc2s1` are -9% and 1.23.
The matching figures for `CC(C)c1ccccc1Oc1nc(Oc2ccccc2C(C)C)nc(Oc2ccccc2C(C)C)n1`: -18% and 2.1.
The matching figures for `CCCc1nc(C)sc1C(=O)NCCn1ccc2cc(F)ccc21`: -4% and 0.53.
For `O=S(=O)(c1cccnc1)N1CC(Oc2cccnc2)C1`, the “% Inhibition” value is recorded as -5% and the Z score turned out to be 0.96.
`Cc1cc(C)n(CCCNC(=O)C2CCCN(c3cccc4c3C(=O)N(C3CCOC(C)(C)C3)C4=O)C2)n1` (stereo not drawn): the “% Inhibition” value is reported as 11% and the Z score is listed as -1.4.
The matching figures for `O=C(NCc1ccoc1)c1ccc2c(c1)OCO2`: -6% and 0.9.
The matching figures for `CN(Cc1nc(C(F)(F)F)no1)[C@H]1CS(=O)(=O)C[C@@H]1O`: -10% and 1.02.
The matching figures for `O=S(=O)(CCn1cnnn1)N1CCO[C@H](C2CCCCC2)C1`: -6% and 0.97.
Take `CC(=O)c1cc(Cl)c(Cl)cc1OCc1ncc(C)o1`: the “% Inhibition” value is listed as -8% and the Z score turned out to be 0.81.
The matching figures for `Cc1ccc(OCC(=O)N2N=C3CCCCC3C2(O)C(F)(F)F)cc1` (stereo not drawn): 4% and -0.44.
The matching figures for `O=S(=O)(c1ccc(Cl)cc1F)N1CC[C@H](c2cnccn2)C1`: -4% and 0.72.
For the molecule `CCN(CC)c1ccc(N2CCN(C(C)=O)CC2)nn1`, the “% Inhibition” value is recorded as -7% and the Z score is given as 1.08.
On the same counts, the results for `COc1cccc(CNC(=O)Cn2nc3c(Oc4ccccc4)nc4ccccc4n3c2=O)c1` are -10% and 1.43.
The matching figures for `CCOC(=O)CN(C(=O)CCNC(=O)C(C)(C)C)c1ccc(F)cc1`: -19% and 1.67.

The % Inhibition is the relative decrease from the control value, in per cent.
